Laboratory results taken from PubChem BioAssay AID1508623 (National Center for Advancing Translational Sciences (NCATS), 2021).
Where “and” joins values, the source holds several entries; their conditions need not be identical. Equal entries are not always repeated. The whole screen tested about 48,000 compounds, of which about 450 (0.94%) were called active. The inconclusive results got no clear call from the source; some entries with a clear call stand among them for comparison. Calls follow the shape of the dose curve; as a rule, active = well fitted inhibition curve with a large enough effect; inconclusive = small, poorly fitted or top-dose-only effect; inactive = no such curve, though single readings can be large or run the other way. A potency beside an inconclusive call is a rough fit, not a confirmed value.

Assay: Primary qHTS for Identification of Small Molecule Inhibitors of Huntingtin Promoter Activity; also: nearly all actives have a fitted effect of over 50% in size
Conditions: HEK293 HTT promoter firefly luciferase reporter (activity 0% = vehicle and -100% = no light), 24 h; series mostly up to 57.5 µM
In short: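 HEK293 cells carrying firefly luciferase reporters were seeded at 2,500 per well in Opti-MEM and cultured for 24 h. They were then treated with compounds at up to 57.5 uM final for 24 h at 37 degrees C before Dual-Glo luminescence readout.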
Potency is read from the fitted curve at half-maximal effect; tags tell the direction and shape of the fitted curve.

Potency, active:
CC(C)c1ccc(NC(=O)c2ccc3c(c2)CCCN3S(C)(=O)=O)cc1 10 µM
O=C(CCNS(=O)(=O)c1ccc2c(c1)CCN2C(=O)C1CC1)N1CCN(c2cccc(C(F)(F)F)c2)CC1 28.2 µM

Potency, inactive:
COc1ccc(N2Cc3cccc(C(=O)Nc4ccc(C)cc4)c3C2=O)cc1
COc1cc(-c2noc(-c3ccc(N4CCCC4)c([N+](=O)[O-])c3)n2)cc(OC)c1OC
Cc1ccc(-n2cnc3cc(C(=O)NCCC4=CCCCC4)ccc32)cc1Cl
CCCCCCCCOc1ccccc1C(=O)Nc1ccc(C(=O)OCC[N+](C)(CC)CC)cc1
O=C1CCSc2ccc(S(=O)(=O)Nc3cccc(C(F)(F)F)c3)cc2N1
O=S(=O)(c1ccc2nc(Nc3ccc(F)cc3)ccc2c1)N1CCCC1
N[C@@H](Cc1ccc(O)c(O)c1)C(=O)O
Cc1ccc(NC(=O)c2c(C)oc3ncn(CC(C)C)c(=O)c23)nc1
CCN(C(=O)Cn1c(=O)n(Cc2ccc3c(c2)OCO3)c(=O)c2ccc(C(=O)NC3CCCCC3)cc21)c1cccc(C)c1
Cc1cccc(Nc2nc3c(S(=O)(=O)c4ccc(Br)cc4)nnn3c3ccsc23)c1C

Potency, inconclusive:
O=C(Nc1ccc2c(c1)CCCN2C(=O)c1cccs1)c1c(F)cccc1F 39.8 µM [inhibitor, single point]
CSc1ccc(CNC(=O)C2CCN(c3nnc(-n4cccc4CNc4ccc(C)cc4)s3)CC2)cc1 22.4 µM [inhibitor, partial curve]
N#Cc1c(-n2ncnc2-c2ccc(Br)cc2)sc2c1CCCCC2 1.26 µM [inhibitor, single point]
COc1cccc(CN(C(=O)c2oc3ccc(Br)cc3c2C)C2CCS(=O)(=O)C2)c1 (stereo not drawn) 35.5 µM [inhibitor, single point]
CCOC(=O)c1ccccc1NC(=O)c1c(-c2ccccc2)noc1C 25.1 µM [inhibitor, single point]
Cc1ccccc1-c1ccnc2c(-c3ccc(F)cc3)c(C)nn12 25.1 µM [inhibitor, partial curve, poor fit]
Cc1ccc(-c2cc(N)n(Cc3cccc(Cl)c3)n2)cc1 31.6 µM [inhibitor, partial curve, poor fit]
Cc1ccc(-n2nc3c(N4CCC(C(=O)NCCc5ccccc5)CC4)nnc(C)c3c2C)cc1 39.8 µM [inhibitor, partial curve, poor fit]
COc1ccc(C)cc1NC(=O)CN(C)S(=O)(=O)c1ccc2c(c1)CCCN2C(C)=O 35.5 µM [inhibitor, partial curve]
CC(=O)N1CCc2c(sc3c2c(=O)n(Cc2ccccc2)c(=O)n3Cc2cccc(Cl)c2)C1 28.2 µM [inhibitor, single point]
CCC(=O)N1CCc2cc(CNC(=O)Cc3ccc(OC)c(OC)c3)ccc21 35.5 µM [inhibitor, partial curve, poor fit]
COc1cc(C(=O)N2CCc3c([nH]c4ccccc34)C2c2ccc(F)cc2)cc(OC)c1OC (stereo not drawn) 25.1 µM [inhibitor, single point]
CCOc1ccccc1CNC(=O)C1CCN(C(=O)N2CCOc3ccc(Cl)cc32)CC1 35.5 µM [inhibitor, single point]
Cc1cn2c(=O)cc(COC(=O)c3cccc(NC(=O)COc4ccccc4)c3)nc2s1 39.8 µM [inhibitor, single point]
CC(C)Oc1ccc(CNC(=O)c2ccc(CS(=O)Cc3ccccc3Cl)o2)cc1 (stereo not drawn) 22.4 µM [inhibitor, single point]
O=C1c2c(O)ccc(O)c2C(=O)c2c(NCCNCCO)ccc(NCCNCCO)c21 432 nM [inhibitor, partial curve, poor fit] and 631 nM [inhibitor, partial curve, poor fit]
CCOc1ccccc1NC(=O)CCc1c(C)nc2cc(-c3ccccc3)nn2c1C 7.08 µM [inhibitor, partial curve]
Cc1c2cnn(-c3ccccc3)c(=O)c2c(C)n1C(C)C(=O)NCc1cccc(Br)c1 (stereo not drawn) 25.1 µM [inhibitor, single point]
Cc1ccc(NC(=O)CSc2nc3ccccc3n2CC(=O)N(C)C2CCCCC2)cc1C 39.8 µM [inhibitor, partial curve, poor fit]
Cc1ccc(S(=O)(=O)C(CNS(=O)(=O)c2ccc(F)c(C)c2)c2cccs2)cc1 (stereo not drawn) 39.8 µM [inhibitor, single point]
CCN(CC)C(=O)C1CCCN(c2ncnc3c2c(-c2ccccc2)cn3-c2cccc(C)c2)C1 (stereo not drawn) 20 µM [inhibitor, single point]
COc1ccc(CNC(=O)c2ccc(CS(=O)(=O)c3ccc(Br)cc3)o2)cc1 25.1 µM [inhibitor, partial curve, poor fit]
CCOC(=O)c1[nH]c(C)c(CCC(=O)Nc2cc(Cl)c(OC)cc2OC)c1C 15.8 µM [inhibitor, partial curve, poor fit]
O=C(NCc1ccccc1Cl)c1ccc2c(c1)N(Cc1ccccc1)CCS2 12.6 µM [inhibitor, partial curve, poor fit]
O=C(CSc1nc2ccccc2n1Cc1cccc(F)c1)N1CCN(c2ccc(F)cc2)CC1 39.8 µM [inhibitor, single point]
Cc1nc(-c2ccc(C)c(S(=O)(=O)N3CCC(C(=O)NCc4ccc(F)cc4)CC3)c2)no1 2 µM [inhibitor, full curve, poor fit]
COc1ccc(S(=O)(=O)N(CCc2ccccc2)CC(=O)Nc2cc(C)cc(C)c2)cc1OC 35.5 µM [inhibitor, partial curve, poor fit]
COc1ccccc1N1CCN(S(=O)(=O)CCNC(=O)C(c2ccccc2)c2ccccc2)CC1 39.8 µM [inhibitor, single point]
CCc1ccc(OCc2ccccc2C(=O)Nc2ccc3nc(C)cc(N)c3c2)cc1 43.2 µM [inhibitor, single point]
COc1ccc(OCc2ccc(-c3nc(C#N)c(NCc4cccnc4)o3)o2)cc1 39.8 µM [inhibitor, single point]
CN(c1ncccc1CNc1nc(Nc2ccc3c(c2)CC(=O)N3)ncc1C(F)(F)F)S(C)(=O)=O 12.2 µM [inhibitor, full curve]
COCc1oc2ccc(NS(=O)(=O)c3ccc(C)cc3)cc2c1C(=O)OC 12.6 µM [inhibitor, partial curve, poor fit]
COc1ccccc1N1CCN(C(=O)c2cc3c(-c4ccccc4F)nn(C)c3s2)CC1 17.8 µM [inhibitor, partial curve, poor fit]
COc1cc2ccccc2cc1C(=O)N1CCN(c2nc3c(F)cc(F)cc3s2)CC1 35.5 µM [inhibitor, partial curve, poor fit]
COc1ccc(N2CCN(CCCNC(=O)c3ccc4nc(Cc5ccccc5)oc4c3)CC2)cc1 14.1 µM [inhibitor, partial curve, poor fit]
CCOc1ccc(CNC(=O)C2CCCN(c3nn4cc(-c5ccc(F)cc5)nc4s3)C2)cc1 (stereo not drawn) 1.58 µM [inhibitor, full curve, poor fit]
CSc1cccc(NC(=O)CN2C(=O)CCc3cc(S(=O)(=O)N4CCCCC4)ccc32)c1 39.8 µM [inhibitor, single point]
CCOc1ccccc1NC(=O)CSc1ccc2nc(-c3ccccc3)cn2n1 39.8 µM [inhibitor, single point]
CCc1ccc2oc(-c3ccc(NC(=O)c4cccc(Cl)c4Cl)cc3)nc2c1 14.1 µM [inhibitor, partial curve, poor fit]
Cc1ccc(N2C(=O)CCSC23C(=O)N(Cc2ccc(F)cc2)c2ccccc23)cc1 (stereo not drawn) 31.6 µM [inhibitor, single point]
CCOc1cccc(C(=O)N(Cc2ccc(F)cc2)Cc2ccco2)c1 31.6 µM [inhibitor, single point]
Cc1ccc(N2C(=O)CS(=O)(=O)C23C(=O)N(Cc2ccc(Cl)cc2)c2ccccc23)cc1C (stereo not drawn) 17.8 µM [inhibitor, single point]
COc1ccc(C(=O)N(c2ccc(C)cc2)S(=O)(=O)c2ccc(C)cc2)cc1 25.1 µM [inhibitor, partial curve]
COc1ccc(Cl)cc1NC(=O)C1CCN(S(=O)(=O)c2ccc(F)cc2)CC1 31.6 µM [inhibitor, partial curve, poor fit]
CC1CCN(C(=O)CSc2nnc(NC(=O)Nc3ccccc3)s2)CC1 35.5 µM [inhibitor, single point]
CCOC(=O)C1CCN(C(=O)Cn2ncc3c4ccccc4n(Cc4ccccc4)c3c2=O)CC1 25.1 µM [inhibitor, single point]
